Laboratory results from the RNAGym collection of RNA variant scans (doi:10.7554/elife.90254).
The source gives no read counts; variants with many changes may rest on few reads.

B1: LINE1-mini (parent)
chain: GGCAGAGCUCAACACAGCGUGGCAAAGUGGCUGUGGCUAGACUGCC

Variants of: B1
Assay: self-cleavage, relative activity (ratio to wild type); higher = more cleavage; in vitro, sequencing; the parent is a self-cleaving ribozyme

Row | Variant | self-cleavage
1 | A14C C18A A25G G29U U32C | 0.01
2 | A14C C18A G27C C46A | 0.11
3 | A14C C18A G40U A41U | 0.12
4 | A14C C18A G44U | 0.02
5 | A14C C18G G40A | 0.29
6 | A14C C18U A24U U38G | 0.02
7 | A14C C18U A39G | 0.02
8 | A14C C18U G22C G27U G36A | 0.25
9 | A14C C18U G33A | 0.04
10 | A14C C18U G35C | 0.03
11 | A14C C18U U32A | 0.12
12 | A14C C23A G29U G30U | 0.1
13 | A14C C23A U43G C46A | 0.06
14 | A14C C23G C45A | 0.08
15 | A14C C23G U34A C45G | 0.06
16 | A14C C23U G33A G35U G36C C45A C46A | 0.11
17 | A14C C31G G35U G44C C45A | 0.02
18 | A14C C31U G40C | 0.02
19 | A14C C31U U38C | 0.02
20 | A14C C37A C45G | 0.07
21 | A14C C37G C46U | 0.05
22 | A14C C37G G40U | 0.38
23 | A14C C42U C46A | 0.06
24 | A14C C42U U43A | 0.02

Row | Variant | self-cleavage
25 | A14C G17A G22C C31A U32C C37G C46G | 0
26 | A14C G17A U34C | 0.09
27 | A14C G17C A24C G36A | 0.01
28 | A14C G17C A25G G40A G44A | 0.04
29 | A14C G17C C46U | 0.04
30 | A14C G17C G22U G40A | 0.03
31 | A14C G17C G33A | 0.03
32 | A14C G17U C18G | 0.11
33 | A14C G19A A39U | 1.29
34 | A14C G19A C31G | 0.06
35 | A14C G19U G22A G29A G36C | 0.02
36 | A14C G19U G36A U43G | 0.03
37 | A14C G19U U34G | 0.05
38 | A14C G19U U43A | 0.03
39 | A14C G21A G22U C23A | 0.03
40 | A14C G21A G36U | 0.04
41 | A14C G21A U28G U43A | 0.06
42 | A14C G21A U38G | 0
43 | A14C G21C C45A | 0.03
44 | A14C G21C G22A C42A G44C C45A | 0.03
45 | A14C G21U A24C G27U U34G U38A | 0.03
46 | A14C G21U A26G | 0.01
47 | A14C G21U A26G A41G | 0.03
48 | A14C G21U A39G C45G | 0.03

Row | Variant | self-cleavage
49 | A14C G21U C37A | 0.06
50 | A14C G21U G35U | 0.07
51 | A14C G22A A24U U34G | 0.02
52 | A14C G22A U32C | 0.07
53 | A14C G22C U38G | 0.01
54 | A14C G22U A25C G29A G30C G35A | 0.05
55 | A14C G22U C45U | 0.03
56 | A14C G22U U43G | 0
57 | A14C G27A A39U | 0.01
58 | A14C G27U A39C G40A G44U | 0.13
59 | A14C G27U G29A A39G | 0.04
60 | A14C G27U G40U | 0.04
61 | A14C G29A C31A C37U | 0.11
62 | A14C G29A G30A | 0.26
63 | A14C G29A G33U A41U | 0.07
64 | A14C G29A G35U C45U | 0.07
65 | A14C G29U C31G | 0.03
66 | A14C G29U C31U | 0.21
67 | A14C G29U G30A C31U | 0.07
68 | A14C G29U G33A | 0.11
69 | A14C G29U U32A G36U | 0.07
70 | A14C G29U U38G A41G | 0.03
71 | A14C G29U U43A C45A | 0.01
72 | A14C G30A U34C | 0.03

Row | Variant | self-cleavage
73 | A14C G30U C45G | 0.04
74 | A14C G33A G40U | 0.06
75 | A14C G33C G36U | 0.03
76 | A14C G33C G40C | 0.01
77 | A14C G33U G36U C37G | 0.15
78 | A14C G35C G44U | 0.02
79 | A14C G36U U43A | 0.03
80 | A14C G40C U43C | 0.07
81 | A14C U20A C37A A41U | 0.05
82 | A14C U20C A24G G35U | 0.08
83 | A14C U20C G30U | 0.01
84 | A14C U20G G40A | 0.08
85 | A14C U28A C46G | 0.11
86 | A14C U28A G44U | 0.07
87 | A14C U28G C45A | 0.04
88 | A14C U28G G36U | 0
89 | A14C U32A U38C | 0.05
90 | A14C U32C C45A C46A | 0.06
91 | A14C U34A G36U | 0.03
92 | A14C U34A U38C C42A G44A | 0.11
93 | A14C U34C A39C | 0.13
94 | A14C U34C G35U | 0.07
95 | A14C U34C G36A C37A | 0.02
96 | A14G A16C C23A U28C C42G C45U | 0.05

Row | Variant | self-cleavage
97 | A14G A16C G17C G27A G33U A39U C42U | 0.11
98 | A14G A16C G30A C37A | 0.02
99 | A14G A16U C42A U43A | 0
100 | A14G A16U G21U G40A | 0.14
101 | A14G A24G G30A A39C | 0.02
102 | A14G A24U G40U | 0.15
103 | A14G A25C C37A A41G C46U | 0.14
104 | A14G A25U C37G | 0.04
105 | A14G A26C C37G A41U | 0.01
106 | A14G A26C U28A G40C G44U | 0.03
107 | A14G A26C U28A U38A U43A | 0.04
108 | A14G A26G G27U G35U C37A | 0
109 | A14G A26U U28A | 0.23
110 | A14G A39G G40C | 0
111 | A14G A39U A41U | 0.1
112 | A14G A41C U43C C45G | 0.02
113 | A14G C15A A26C A41U | 0.03
114 | A14G C15A G19C | 0.17
115 | A14G C15A G19C U38C | 0.14
116 | A14G C15A G19U C23A U32G | 0.01
117 | A14G C15A G21U | 0.05
118 | A14G C15A G33A | 0.04
119 | A14G C15A G40U | 0.15
120 | A14G C15G C23U A39C | 0.6

Row | Variant | self-cleavage
121 | A14G C15G U34A C45A | 0.01
122 | A14G C15U A39C C45A | 0.06
123 | A14G C15U A41U | 0.35
124 | A14G C15U C18G A39C A41G | 0.04
125 | A14G C15U C31U A41C | 0.03
126 | A14G C15U G19A G27U C46A | 0.06
127 | A14G C15U G40A | 0.06
128 | A14G C15U U28G A39G | 0.01
129 | A14G C18A A24G A25U | 0.04
130 | A14G C18A A25G | 0.09
131 | A14G C18A G44U | 0.04
132 | A14G C18A U20C U34C A39C | 0.05
133 | A14G C18G A26C G29U U32G | 0
134 | A14G C18G G36A C37U | 0.06
135 | A14G C18U A41U C45U | 0.1
136 | A14G C18U G27U | 0.8
137 | A14G C23A C37A | 0
138 | A14G C23A C37U C45A | 0.03
139 | A14G C23A G35A A41G | 0.04
140 | A14G C23A G40C | 0.03
141 | A14G C23G C42G | 0
142 | A14G C23G C46A | 0.18
143 | A14G C23U G30U A41G | 0.15
144 | A14G C31A G33C C37G | 0.02

Row | Variant | self-cleavage
145 | A14G C31A U32G U34G C46A | 0.02
146 | A14G C31G U43A C45G | 0.01
147 | A14G C31U C37U C45G | 0.11
148 | A14G C31U G33A G36C | 0.06
149 | A14G C31U U38C | 0.08
150 | A14G C37A C45U | 0.05
151 | A14G C37G U43C | 0.01
152 | A14G C42A C45A | 0.02
153 | A14G C42U G44A C46G | 0.04
154 | A14G G17A A24G | 0.06
155 | A14G G17A A26G | 0.06
156 | A14G G17A A41U | 0.02
157 | A14G G17A C23A A26G C42U U43A | 0.01
158 | A14G G17A G19A G21C A25U | 0.13
159 | A14G G17A G36U C46A | 0.04
160 | A14G G17A U28G U38G G40A | 0.01
161 | A14G G17A U32A | 0.09
162 | A14G G17C C23U U32C G40C | 0.04
163 | A14G G17C C31U | 0.01
164 | A14G G17C C37G | 0.03
165 | A14G G17C G27A | 0.11
166 | A14G G17U A24C C46U | 0.03
167 | A14G G17U G21U C45U | 0.03
